{
  "source": "paper PMC10063618",
  "binders": {"B1": {"name": "KIN10 (SnRK1α1), endogenous (enzyme, UniProt Q38997 1-512)", "chain": "MDGSGTGSRSGVESILPNYKLGRTLGIGSFGRVKIAEHALTGHKVAIKILNRRKIKNMEMEEKVRREIKILRLFMHPHIIRLYEVIETPTDIYLVMEYVNSGELFDYIVEKGRLQEDEARNFFQQIISGVEYCHRNMVVHRDLKPENLLLDSKCNVKIADFGLSNIMRDGHFLKTSCGSPNYAAPEVISGKLYAGPEVDVWSCGVILYALLCGTLPFDDENIPNLFKKIKGGIYTLPSHLSPGARDLIPRMLVVDPMKRVTIPEIRQHPWFQAHLPRYLAVPPPDTVQQAKKIDEEILQEVINMGFDRNHLIESLRNRTQNDGTVTYYLILDNRFRASSGYLGAEFQETMEGTPRMHPAESVASPVSHRLPGLMEYQGVGLRSQYPVERKWALGLQSRAHPREIMTEVLKALQDLNVCWKKIGHYNMKCRWVPNSSADGMLSNSMHDNNYFGDESSIIENEAAVKSPNVVKFEIQLYKTRDDKYLLDLQRVQGPQFLFLDLCAAFLAQLRVL"}, "B2": {"name": "AD-KIN10 (enzyme, UniProt Q38997 1-512)", "chain": "B1 chain"}, "B3": {"name": "YFP-ATG8a (protein, UniProt Q8LEM4 1-117)", "chain": "MAKSSFKISNPLEARMSESSRIREKYPDRIPVIVEKAGQSDVPDIDKKKYLVPADLTVGQFVYVVRKRIKLGAEKAIFVFVKNTLPPTAALMSAIYEEHKDEDGFLYMTYSGENTFG"}, "B4": {"name": "KIN10-YFP (enzyme, UniProt Q38997 1-512)", "chain": "B1 chain"}, "B5": {"name": "KIN10-6HA (enzyme, UniProt Q38997 1-512)", "chain": "B1 chain"}, "B6": {"name": "ATG12b (endogenous) (protein, UniProt Q9LVK3 1-94)", "chain": "MATESPNSVQKIVVHLRATGGAPILKQSKFKVSGSDKFANVIDFLRRQLHSDSLFVYVNSAFSPNPDESVIDLYNNFGFDGKLVVNYACSMAWG"}, "B7": {"name": "ATG5 (yeast two-hybrid fusion) (protein, UniProt Q9FFI2 1-337)", "chain": "MAKEAVKYVWEGAIPLQIHLHKSDVASHPAPPPALVLAPRIGYLPLLIPLIKPYFKDSLPPGEDSIWFDYKGFPLKWYIPTGVLFDLLCAEPERPWNLTIHFRGYPCNILIPCEGEDSVKWNFVNSLKEAQYIINGNCKNVMNMSQSDQEDLWTSVMNGDLDAYTRLSPKLKMGTVEDEFSRKTSLSSPQSQQVVPETEVAGQVKTARIPVRLYVRSLNKDFENLEDVPEIDTWDDISYLNRPVEFLKEEGKCFTLRDAIKSLLPEFMGDRAQTSGEERSIDDTEEADGSREMGEIKLVRIQGIEMKLEIPFSWVVNNLMNPEFYLHISVLVKAPQR"}, "B8": {"name": "ATG5 (endogenous) (protein, UniProt Q9FFI2 1-337)", "chain": "B7 chain"}, "B9": {"name": "ATG16 (yeast two-hybrid fusion) (protein, UniProt Q6NNP0 1-509)", "chain": "MVQEEKAMEAINDALRALRKRHLLEEGAHAPAISALSKPLISQGSEWKEKTEKLETELQQCYKAQSRLSEQLVIEVAESRTSKAILQEKELLINDLQKELTQRREDCTRLQEELEEKTKTVDVLIAENLEIRSQLEEMTSRVQKAETENKMLIDRWMLQKMQDAERLNEANDLYEEMLAKLKANGLETLARQQVDGIVRRNEDGTDHFVESTIPSTCANRIHAHEGGCGSIVFEYNSGTLFTGGQDRAVKMWDTNSGTLIKSLYGSLGNILDMAVTHDNKSVIAATSSNNLFVWDVSSGRVRHTLTGHTDKVCAVDVSKFSSRHVVSAAYDRTIKLWDLHKGYCTNTVLFTSNCNAICLSIDGLTVFSGHMDGNLRLWDIQTGKLLSEVAGHSSAVTSVSLSRNGNRILTSGRDNVHNVFDTRTLEICGTLRASGNRLASNWSRSCISPDDDYVAAGSADGSVHVWSLSKGNIVSILKEQTSPILCCSWSGIGKPLASADKNGYVCTWT"}},
  "key": {"[1]": {"target": "T1, GFP-FREE1 (transgenic Arabidopsis plants) (Arabidopsis thaliana) (UniProt Q9ASS2)", "T1 sequence": "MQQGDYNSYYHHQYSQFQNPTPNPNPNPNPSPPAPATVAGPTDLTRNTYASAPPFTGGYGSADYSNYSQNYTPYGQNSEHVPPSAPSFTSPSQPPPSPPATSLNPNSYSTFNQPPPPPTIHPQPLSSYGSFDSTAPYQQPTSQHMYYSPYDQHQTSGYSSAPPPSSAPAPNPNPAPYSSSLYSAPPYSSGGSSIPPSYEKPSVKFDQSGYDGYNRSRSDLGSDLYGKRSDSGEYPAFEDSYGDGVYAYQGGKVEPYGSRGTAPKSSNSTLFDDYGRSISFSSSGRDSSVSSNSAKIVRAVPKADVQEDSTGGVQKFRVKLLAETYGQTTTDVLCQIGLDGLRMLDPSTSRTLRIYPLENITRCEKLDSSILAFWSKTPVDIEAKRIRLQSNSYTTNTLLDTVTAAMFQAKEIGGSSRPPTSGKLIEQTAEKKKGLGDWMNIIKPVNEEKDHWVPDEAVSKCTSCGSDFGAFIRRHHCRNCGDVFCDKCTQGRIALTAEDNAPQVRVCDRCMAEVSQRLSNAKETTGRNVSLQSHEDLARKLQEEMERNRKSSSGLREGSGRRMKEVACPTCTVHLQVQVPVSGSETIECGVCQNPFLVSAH", "assay": "co-IP; GFP-Trap magnetic beads, 2-4 h at 4 °C, on extracts of transgenic plants expressing the GFP fusion; endogenous partner found by immunoblot; IP buffer 50 mM Tris-HCl pH 7.4, 150 mM NaCl, 1 mM MgCl2, 20% glycerol, 0.2% NP-40; some experiments after nitrogen starvation for at least 18 h"}, "[2]": {"target": "T2, BD-FREE1^231-601 (Arabidopsis thaliana) (UniProt Q9ASS2)", "T2 sequence": "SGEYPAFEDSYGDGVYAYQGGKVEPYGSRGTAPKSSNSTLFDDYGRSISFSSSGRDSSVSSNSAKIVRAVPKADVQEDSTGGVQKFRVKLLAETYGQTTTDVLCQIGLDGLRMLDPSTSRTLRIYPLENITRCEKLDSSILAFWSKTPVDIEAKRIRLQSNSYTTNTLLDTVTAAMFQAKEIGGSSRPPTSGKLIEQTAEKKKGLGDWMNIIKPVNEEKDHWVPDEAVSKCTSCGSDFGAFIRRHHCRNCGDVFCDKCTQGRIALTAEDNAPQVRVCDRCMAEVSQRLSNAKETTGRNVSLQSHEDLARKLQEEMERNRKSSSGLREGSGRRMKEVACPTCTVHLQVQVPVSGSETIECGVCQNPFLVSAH", "assay": "two-hybrid; pGBKT7 (BD-FREE1 231-601) and pGADT7 co-transformed into yeast AH109; selection on SD lacking His, Trp, Leu with 3AT, or His, Trp, Leu and Ade"}, "[3]": {"target": "T3, CFP-FREE1 (Arabidopsis thaliana) (UniProt Q9ASS2)", "T3 sequence": "T1 sequence", "assay": "FRET or BRET; acceptor photobleaching FRET of CFP and YFP fusions in Arabidopsis protoplasts cultured 24 h, Leica SP8"}, "[4]": {"target": "T4, YFP-FREE1 (Arabidopsis protoplasts) (Arabidopsis thaliana) (UniProt Q9ASS2)", "T4 sequence": "T1 sequence", "assay": "co-IP; GFP-Trap magnetic beads, 2-4 h at 4 °C, on extracts of Arabidopsis protoplasts co-expressing both tagged proteins; IP buffer 50 mM Tris-HCl pH 7.4, 150 mM NaCl, 1 mM MgCl2, 20% glycerol, 0.2% NP-40; YFP only as control"}, "[5]": {"target": "T5, GFP-FREE1^S530A (Arabidopsis thaliana) (UniProt Q9ASS2)", "T5 sequence": "T1 sequence with S530A", "assay": "co-IP; GFP-Trap magnetic beads, 2-4 h at 4 °C, on extracts of transgenic plants expressing the GFP fusion; endogenous partner found by immunoblot; IP buffer 50 mM Tris-HCl pH 7.4, 150 mM NaCl, 1 mM MgCl2, 20% glycerol, 0.2% NP-40; some experiments after nitrogen starvation for at least 18 h"}},
  "note": "Substitutions are numbered along the chain they refer to. Results are given in words; binding and its absence hold for the method and conditions named. For part of these data: In cells and extracts the contact can be indirect. Some results given as binding are weak or reduced against the parent protein; the word gives no strength. Tags and fused reporters may be left off the sequences shown.",
  "data": [
    {"binder": "B1", "values": [
      {"measurement": "binding", "setting": "[1]", "value": "binds"}
    ]},
    {"binder": "B2", "values": [
      {"measurement": "binding", "setting": "[2]", "value": "binds"}
    ]},
    {"binder": "B3", "values": [
      {"measurement": "binding", "setting": "[3]", "value": "binds"}
    ]},
    {"binder": "B4", "values": [
      {"measurement": "binding", "setting": "[3]", "value": "binds"}
    ]},
    {"binder": "B5", "values": [
      {"measurement": "binding", "setting": "[4]", "value": "binds"}
    ]},
    {"binder": "B6", "values": [
      {"measurement": "binding", "setting": "[1]", "value": "binds"}
    ]},
    {"binder": "B7", "values": [
      {"measurement": "binding", "setting": "[2]", "value": "no binding"}
    ]},
    {"binder": "B8", "values": [
      {"measurement": "binding", "setting": "[5]", "value": "no binding"}
    ]},
    {"binder": "B9", "values": [
      {"measurement": "binding", "setting": "[2]", "value": "no binding"}
    ]}
  ]
}
